The source of these data is publication PMC3387134.

Protein sequences, listed by entry. Tags and fused reporters are not part of them.
UniProt P35222: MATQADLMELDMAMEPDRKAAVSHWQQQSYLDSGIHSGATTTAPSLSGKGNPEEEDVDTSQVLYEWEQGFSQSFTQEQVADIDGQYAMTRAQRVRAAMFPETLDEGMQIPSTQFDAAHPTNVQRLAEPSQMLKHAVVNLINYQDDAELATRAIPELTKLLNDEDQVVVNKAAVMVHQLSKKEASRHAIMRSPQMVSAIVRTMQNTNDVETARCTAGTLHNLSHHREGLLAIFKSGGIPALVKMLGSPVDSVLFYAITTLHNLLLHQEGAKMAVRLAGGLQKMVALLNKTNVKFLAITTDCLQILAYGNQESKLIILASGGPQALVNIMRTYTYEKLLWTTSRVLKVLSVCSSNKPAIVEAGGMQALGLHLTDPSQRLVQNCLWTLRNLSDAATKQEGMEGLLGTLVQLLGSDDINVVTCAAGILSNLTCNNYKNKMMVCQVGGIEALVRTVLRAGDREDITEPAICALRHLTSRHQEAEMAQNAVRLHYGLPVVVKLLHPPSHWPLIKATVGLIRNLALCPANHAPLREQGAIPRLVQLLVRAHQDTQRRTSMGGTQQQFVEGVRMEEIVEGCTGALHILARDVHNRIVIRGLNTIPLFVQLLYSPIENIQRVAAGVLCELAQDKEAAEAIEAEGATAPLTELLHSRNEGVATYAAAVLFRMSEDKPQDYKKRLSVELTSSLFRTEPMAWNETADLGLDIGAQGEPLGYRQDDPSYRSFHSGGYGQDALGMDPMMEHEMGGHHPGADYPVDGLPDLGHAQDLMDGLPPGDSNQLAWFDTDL
UniProt Q9WV60: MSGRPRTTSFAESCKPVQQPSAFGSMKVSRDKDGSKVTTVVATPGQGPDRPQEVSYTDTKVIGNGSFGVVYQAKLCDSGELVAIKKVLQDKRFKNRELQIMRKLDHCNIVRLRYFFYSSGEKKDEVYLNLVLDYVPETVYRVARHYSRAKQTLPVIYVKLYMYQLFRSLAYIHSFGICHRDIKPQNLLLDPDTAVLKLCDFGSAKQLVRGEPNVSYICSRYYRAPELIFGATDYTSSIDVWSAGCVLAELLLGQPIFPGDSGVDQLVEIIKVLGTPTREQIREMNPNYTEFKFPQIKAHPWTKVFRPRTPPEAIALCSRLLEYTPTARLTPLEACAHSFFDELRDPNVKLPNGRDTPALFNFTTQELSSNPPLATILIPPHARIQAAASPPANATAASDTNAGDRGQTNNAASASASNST
UniProt Q61315: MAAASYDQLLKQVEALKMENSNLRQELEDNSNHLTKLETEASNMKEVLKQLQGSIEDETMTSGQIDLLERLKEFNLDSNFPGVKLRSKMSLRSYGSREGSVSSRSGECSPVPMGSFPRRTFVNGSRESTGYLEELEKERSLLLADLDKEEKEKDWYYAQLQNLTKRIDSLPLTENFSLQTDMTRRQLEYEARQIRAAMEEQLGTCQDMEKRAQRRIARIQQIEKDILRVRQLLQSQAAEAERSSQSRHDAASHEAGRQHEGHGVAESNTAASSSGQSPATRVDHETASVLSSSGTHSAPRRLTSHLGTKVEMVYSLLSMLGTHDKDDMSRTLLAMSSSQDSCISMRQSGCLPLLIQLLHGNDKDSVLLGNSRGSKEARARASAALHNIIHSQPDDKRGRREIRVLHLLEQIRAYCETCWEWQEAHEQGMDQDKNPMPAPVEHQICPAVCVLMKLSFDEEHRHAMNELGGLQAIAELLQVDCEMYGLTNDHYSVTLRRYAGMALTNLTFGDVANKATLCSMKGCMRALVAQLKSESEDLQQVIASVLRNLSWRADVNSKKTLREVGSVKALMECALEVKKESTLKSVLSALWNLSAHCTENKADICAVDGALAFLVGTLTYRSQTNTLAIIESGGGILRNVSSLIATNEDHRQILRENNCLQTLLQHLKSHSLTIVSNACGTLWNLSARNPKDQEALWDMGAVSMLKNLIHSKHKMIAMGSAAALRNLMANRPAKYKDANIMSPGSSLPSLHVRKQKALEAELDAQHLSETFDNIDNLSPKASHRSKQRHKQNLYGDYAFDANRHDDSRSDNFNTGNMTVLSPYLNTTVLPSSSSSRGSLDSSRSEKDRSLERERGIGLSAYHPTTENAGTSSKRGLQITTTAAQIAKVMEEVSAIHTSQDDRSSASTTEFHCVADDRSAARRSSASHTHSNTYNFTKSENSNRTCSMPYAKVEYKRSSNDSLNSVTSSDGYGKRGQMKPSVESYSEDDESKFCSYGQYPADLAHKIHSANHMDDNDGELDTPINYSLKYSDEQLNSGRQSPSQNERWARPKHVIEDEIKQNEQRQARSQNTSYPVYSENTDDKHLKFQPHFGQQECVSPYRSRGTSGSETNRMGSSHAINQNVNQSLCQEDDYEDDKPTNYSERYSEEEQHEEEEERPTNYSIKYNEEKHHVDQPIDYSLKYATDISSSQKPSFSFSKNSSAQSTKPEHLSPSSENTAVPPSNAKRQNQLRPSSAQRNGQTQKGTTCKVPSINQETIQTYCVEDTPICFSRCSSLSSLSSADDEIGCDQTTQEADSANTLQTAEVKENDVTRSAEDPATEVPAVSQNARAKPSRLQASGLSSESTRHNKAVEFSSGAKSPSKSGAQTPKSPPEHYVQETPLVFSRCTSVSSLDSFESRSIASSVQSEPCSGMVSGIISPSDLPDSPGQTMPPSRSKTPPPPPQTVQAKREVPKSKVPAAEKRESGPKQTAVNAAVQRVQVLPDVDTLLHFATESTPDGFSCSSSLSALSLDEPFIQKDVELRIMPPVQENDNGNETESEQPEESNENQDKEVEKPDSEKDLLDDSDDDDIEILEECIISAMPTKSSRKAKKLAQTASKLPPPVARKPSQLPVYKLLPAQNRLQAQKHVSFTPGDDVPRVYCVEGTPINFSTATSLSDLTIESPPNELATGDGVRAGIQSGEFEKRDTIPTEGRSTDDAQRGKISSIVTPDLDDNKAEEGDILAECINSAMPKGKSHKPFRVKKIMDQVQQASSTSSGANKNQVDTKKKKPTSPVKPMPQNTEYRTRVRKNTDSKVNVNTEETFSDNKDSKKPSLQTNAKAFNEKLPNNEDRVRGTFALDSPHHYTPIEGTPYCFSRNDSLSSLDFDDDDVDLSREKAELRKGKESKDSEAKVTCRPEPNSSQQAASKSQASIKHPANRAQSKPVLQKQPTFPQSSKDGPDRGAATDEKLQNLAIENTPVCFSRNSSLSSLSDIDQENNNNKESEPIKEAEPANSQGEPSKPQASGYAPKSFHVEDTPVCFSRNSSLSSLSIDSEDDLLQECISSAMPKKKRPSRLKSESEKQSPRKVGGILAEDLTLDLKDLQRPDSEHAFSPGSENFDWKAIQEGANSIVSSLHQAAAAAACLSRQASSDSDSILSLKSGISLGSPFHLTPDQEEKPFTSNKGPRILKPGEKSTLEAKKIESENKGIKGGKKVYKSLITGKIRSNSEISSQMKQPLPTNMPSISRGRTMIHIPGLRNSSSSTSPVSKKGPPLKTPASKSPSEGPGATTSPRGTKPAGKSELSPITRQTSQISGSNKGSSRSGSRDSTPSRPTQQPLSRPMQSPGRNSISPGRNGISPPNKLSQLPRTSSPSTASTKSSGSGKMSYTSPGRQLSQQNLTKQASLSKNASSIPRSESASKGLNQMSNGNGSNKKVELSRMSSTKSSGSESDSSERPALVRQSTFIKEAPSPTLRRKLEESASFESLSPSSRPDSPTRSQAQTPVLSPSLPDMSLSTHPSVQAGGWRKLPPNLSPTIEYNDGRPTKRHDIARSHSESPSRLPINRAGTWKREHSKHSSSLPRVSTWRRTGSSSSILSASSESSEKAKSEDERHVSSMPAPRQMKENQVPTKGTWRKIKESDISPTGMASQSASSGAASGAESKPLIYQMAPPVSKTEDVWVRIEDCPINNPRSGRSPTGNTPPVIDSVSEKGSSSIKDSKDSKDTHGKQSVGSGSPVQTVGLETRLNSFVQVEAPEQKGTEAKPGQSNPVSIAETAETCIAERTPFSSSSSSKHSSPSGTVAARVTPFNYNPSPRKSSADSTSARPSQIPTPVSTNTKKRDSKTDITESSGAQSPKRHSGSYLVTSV
UniProt P49841: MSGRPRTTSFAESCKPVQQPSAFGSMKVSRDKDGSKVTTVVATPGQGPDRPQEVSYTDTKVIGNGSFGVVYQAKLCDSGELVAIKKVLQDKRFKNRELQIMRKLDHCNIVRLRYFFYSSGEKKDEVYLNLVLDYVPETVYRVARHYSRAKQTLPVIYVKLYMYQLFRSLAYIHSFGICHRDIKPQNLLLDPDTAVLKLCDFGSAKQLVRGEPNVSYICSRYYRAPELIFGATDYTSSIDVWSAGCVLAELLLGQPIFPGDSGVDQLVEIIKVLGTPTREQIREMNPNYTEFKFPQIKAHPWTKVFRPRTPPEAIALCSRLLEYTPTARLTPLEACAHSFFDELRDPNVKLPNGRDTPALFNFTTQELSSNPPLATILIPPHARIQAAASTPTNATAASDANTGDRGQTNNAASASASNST
UniProt Q02248: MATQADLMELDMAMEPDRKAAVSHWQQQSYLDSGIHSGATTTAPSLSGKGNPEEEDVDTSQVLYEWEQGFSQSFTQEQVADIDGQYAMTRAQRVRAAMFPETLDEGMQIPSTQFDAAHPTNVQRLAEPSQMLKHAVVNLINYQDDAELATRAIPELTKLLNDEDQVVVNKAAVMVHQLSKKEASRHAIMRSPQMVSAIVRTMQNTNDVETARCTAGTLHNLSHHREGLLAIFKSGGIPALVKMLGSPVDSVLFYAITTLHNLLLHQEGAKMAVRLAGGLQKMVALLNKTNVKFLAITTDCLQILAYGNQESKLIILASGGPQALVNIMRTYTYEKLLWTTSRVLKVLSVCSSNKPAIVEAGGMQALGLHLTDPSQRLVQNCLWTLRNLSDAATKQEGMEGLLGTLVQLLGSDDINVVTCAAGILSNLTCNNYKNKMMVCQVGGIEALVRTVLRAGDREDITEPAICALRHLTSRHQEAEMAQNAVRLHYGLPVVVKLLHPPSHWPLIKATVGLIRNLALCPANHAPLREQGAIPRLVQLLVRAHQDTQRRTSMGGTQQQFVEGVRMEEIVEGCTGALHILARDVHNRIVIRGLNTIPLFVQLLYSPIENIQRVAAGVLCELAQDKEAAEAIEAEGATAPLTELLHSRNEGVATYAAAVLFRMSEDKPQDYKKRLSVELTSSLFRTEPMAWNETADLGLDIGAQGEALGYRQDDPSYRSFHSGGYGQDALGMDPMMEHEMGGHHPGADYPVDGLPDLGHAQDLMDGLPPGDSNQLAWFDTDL

Results are given in words; binding and its absence hold for the method and conditions named. In cells and extracts the contact can be indirect. Some entries that bind do so weakly or less than the wild type. For part of these data: Tags and fused reporters may be left off the sequences shown.

For assay [1], the target named is T1, Flag-tagged 14-3-3σ (UniProt O70456).
T1 sequence: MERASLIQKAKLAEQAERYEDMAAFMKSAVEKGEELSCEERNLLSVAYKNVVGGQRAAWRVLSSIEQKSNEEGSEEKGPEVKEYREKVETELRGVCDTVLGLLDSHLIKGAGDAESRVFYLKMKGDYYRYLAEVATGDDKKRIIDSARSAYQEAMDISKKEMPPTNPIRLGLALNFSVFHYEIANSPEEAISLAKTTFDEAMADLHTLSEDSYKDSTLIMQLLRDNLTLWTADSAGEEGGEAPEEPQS
Description: co-IP; mESCs (CCE; also R1 and D3 for 14-3-3σ) transfected with a Flag-tagged 14-3-3 isoform, lysed in RIPA buffer; IP with anti-Flag antibody, Western blot for endogenous proteins. Background: Immunoblotting shows a protein as a band on a membrane.

The target of another assay is HA-tagged β-catenin (UniProt P35222). Description: co-IP; CCE cells co-transfected with HA-tagged β-catenin with or without 14-3-3σ vector, RIPA lysate; IP with anti-HA antibody, Western blot for GSK-3β, p-GSK-3β, APC, axin.
Assay [2] concerns the target T1, Flag-tagged 14-3-3σ. Description: co-IP; CCE cells co-transfected with 14-3-3σ-Flag and GSK-3β WT, S9A or T309A, RIPA lysate; IP with anti-Flag antibody, Western blot with anti-GSK-3β antibody.
In assay [3] the target is glycogen synthase kinase 3β (GSK-3β), endogenous (mouse (endogenous in CCE, R1 and D3 mESC)) (UniProt Q9WV60). In words: co-IP; CCE cells, untransfected or transfected with Flag-14-3-3σ; IP with GSK-3β antibody, Western blot for 14-3-3σ or Flag; cells with or without RA (48 h), Wnt3a (10 ng/mL), DKK-1 (1 ng/mL).

“APC (adenomatous polyposis coli), endogenous (from UniProt Q61315 1-2845)”: the binding entry was “no binding” in the assay with Flag-tagged 14-3-3σ [1] and “binds” with HA-tagged β-catenin. Turning to “GSK-3β wild-type (WT), transfected (from UniProt P49841 1-420) (enzyme)”, the binding result with Flag-tagged 14-3-3σ [2] is “binds”. Regarding “β-catenin, endogenous (from UniProt Q02248 1-781)”, the binding result with Flag-tagged 14-3-3σ [1] was “no binding”.

B1: 14-3-3σ, endogenous (protein, UniProt O70456 1-248)
chain: MERASLIQKAKLAEQAERYEDMAAFMKSAVEKGEELSCEERNLLSVAYKNVVGGQRAAWRVLSSIEQKSNEEGSEEKGPEVKEYREKVETELRGVCDTVLGLLDSHLIKGAGDAESRVFYLKMKGDYYRYLAEVATGDDKKRIIDSARSAYQEAMDISKKEMPPTNPIRLGLALNFSVFHYEIANSPEEAISLAKTTFDEAMADLHTLSEDSYKDSTLIMQLLRDNLTLWTADSAGEEGGEAPEEPQS
B1: the binding entry in assay [3] is given as “binds”.

B2: Flag-tagged 14-3-3σ (protein, UniProt O70456 1-248)
chain: MERASLIQKAKLAEQAERYEDMAAFMKSAVEKGEELSCEERNLLSVAYKNVVGGQRAAWRVLSSIEQKSNEEGSEEKGPEVKEYREKVETELRGVCDTVLGLLDSHLIKGAGDAESRVFYLKMKGDYYRYLAEVATGDDKKRIIDSARSAYQEAMDISKKEMPPTNPIRLGLALNFSVFHYEIANSPEEAISLAKTTFDEAMADLHTLSEDSYKDSTLIMQLLRDNLTLWTADSAGEEGGEAPEEPQS
In the case of B2, the binding entry in assay [3] was “binds”.
